Data on two molecules can be found in patent publication US11407811B2, “Fusion protein, preparation method therefor and use thereof” (JIANGSU RONGTAI BIOTECH CO., LTD., priority 2017, dated 2022).

The subject of series [1] is melanoma cell line B16F10. Put plainly: MTT assay, proliferation of melanoma cell B16F10. The format is cell-based. Here is the method:
The MTT assay was used to detect the inhibitory effect of the integrin blocker fusion protein obtained in Example 1 on the proliferation of various tumor cells, including melanoma cell B16F10, gastric cancer cell MGC-803, lung cancer cell A549, liver cancer cell Hep-G2, breast cancer cell MDA-MB-231, colon cancer cell HCT-116, human glioma U87, and cervical cancer cell Hela.
The tumor cells were cultured in a 5% CO2 incubator at 37° C. to a density of 90% or more, and collected by trypsinization. The cells were resuspended in the culture liquid and counted under a microscope. The cell concentration was adjusted to 3.0×10^4 cells/mL. The cell suspension was inoculated into a 96-well plate at 100 μL per well and cultured overnight in a 5% CO2 incubator at 37° C. […] After the cells were fully adhered, each dilution was added to a 96-well plate at 100 μL per well, respectively. […] 20 μL of 5 mg/mL MTT was added to each well of a 96-well plate, and incubation was continued for 4 hours. The medium was aspirated and 100 μL of DMSO per well were added to dissolve. The absorbance was measured at 570 nm with a microplate reader with a reference wavelength of 630 nm, and the proliferation inhibition (PI) was calculated. The formula is as follows: […]
where Ntest is the OD value of the test group and Ncontrol is the OD value of the blank control group.
The test was repeated 5 times independently. The results obtained from the test were calculated as mean±SD, and statistical t-test was performed. P<0.05 was considered as a significant difference, and P<0.01 was considered as an extremely significant difference.
(In general: Tetrazolium assays rely on reduction of a dye to a coloured formazan, in cell work by metabolically active cells.)

Series [2] relates to corneal neovascularization in mice. Put plainly: Corneal neovascularization induced by alkali burn in BALB/c mice (MVD, CD31). To be noted: for number of CD31-positive new blood vessels: compared with the control group; for MVD: dose 64 μg, intravitreal injection, day 14 after alkali burn. Format: in vivo. From the text: 15 healthy male BALB/c mice with weight of 20-25 g were examined under a slit lamp microscope for the anterior segment of both eyes and the appendage to exclude ocular lesions. The eyes were given 0.3% loxacin eye drops 1 day before the preparation of alkali burn model, twice a day. After the mice were anesthetized by intraperitoneal injection of 1.8% Avertin, single-layer filter paper with a diameter of 2 mm was clamped with tweezers, and immersed in a 1 mol/L sodium hydroxide solution to reach a saturated state, and the excess liquid was removed. The filter paper was placed in the central corneal of BALB/c mice for 40 s and then discarded, and the burned area and conjunctival sac were immediately rinsed with 15 mL of PBS for 1 min. Excess water was wiped away with cotton swabs, and under an operating microscope, the corneal epithelium was vortically scraped off by paralleling a corneal scraping knife to the limbus corneae. The subcutaneous stromal layer and limbus corneae was carefully not to be injured, and after surgery, an erythromycin eye ointment was applied into the conjunctival sac to prevent infection.
15 mice were randomly divided into […], with 5 rats in each group. […] On day 14 after alkali burn, the neovascularization of the corneal in each group was photographed and recorded under the slit lamp microscope for photographing anterior segment of the eye. […] The blood was washed with physiological saline, and the eyeballs were fixed in 4% paraformaldehyde for 1.5 h, dehydrated in PBS containing 30% sucrose overnight, embedded in an OCT tissue freezing medium, stored in a refrigerator at −80° C., subjected to cryosection at […] and detected by immunohistochemistry for CD31 expression.
Microvessel density (MVD) is an indicator for evaluating angiogenesis. An anti-CD31 antibody immunohistochemistry was used to label vascular endothelial cells and the number of microvessels per unit area was counted to measure the extent of neovascularization. Standards for counting microvessels were that under a microscope, the endothelial cells or cell clusters which were clearly demarcated from adjacent tissues in the corneal tissue and were stained tan or brown were counted as the new blood vessels. The number of new blood vessels in the entire section was counted under a 10×20 microscope. After the corneal tissue was photographed, the area of the entire corneal tissue was calculated by image processing software Image J, and the density of new blood vessels in the entire section in this example was determined.

B1: Protein III: mIgG4-Fc linked to antiangiogenesis polypeptide EDSM-Y via a flexible linker; SEQ ID NO: 19 (protein)
chain: [sequence of human IgG4 Fc with S228P F234A L235A (EU numbers) and a few adjoining residues not given]GGGGSGGGGSGGGGSFQPVLHLVALNSPLSGGMRGIRGADFQCFQQARAVGLAGTFRAGGGGRGD
On to B1, for which the “A570 nm/A630 nm” value in series [1] (dose 1 μg/mL) is on record as 1.1086 ± 0.0151; in series [1] (dose 2 μg/mL), 1.0009 ± 0.0772; in series [1] (dose 4 μg/mL) it was 0.8592 ± 0.0637; in series [1] (dose 8 μg/mL) it was 0.6961 ± 0.0412; in series [1] (dose 16 μg/mL), 0.5219 ± 0.0775; in series [1] (dose 32 μg/mL) it was 0.4327 ± 0.0579. For the same molecule, the entries for the “A570 nm/A630 nm” value in series [1] (dose 64 μg/mL), in series [1] (dose 128 μg/mL) and in series [1] (dose 256 μg/mL) were 0.3029 ± 0.0284, 0.1944 ± 0.0493 and 0.0818 ± 0.0302, respectively. Also, the “PI (%)” value in series [1] (dose 1 μg/mL) is 11.57%; in series [1] (dose 2 μg/mL), 20.16%; in series [1] (dose 4 μg/mL), 31.47%; in series [1] (dose 8 μg/mL), 44.48%; in series [1] (dose 16 μg/mL), 58.37%; in series [1] (dose 32 μg/mL), 65.49%. Besides, the “PI (%)” value in series [1] (dose 64 μg/mL) is listed as 75.84%; in series [1] (dose 128 μg/mL) it was 84.49%; in series [1] (dose 256 μg/mL), 93.48%. Further, in series [2], the “number of CD31-positive new blood vessels” value was “significantly reduced”. In series [2], this molecule had an MVD of 25.74 ± 5.39.

B2: Protein I: IgG1-Fc linked to antiangiogenesis polypeptide EDSM-Y via a flexible linker; SEQ ID NO: 15 (protein)
chain: [sequence of human IgG1 Fc not given]GGGGSGGGGSGGGGSFQPVLHLVALNSPLSGGMRGIRGADFQCFQQARAVGLAGTFRAGGGGRGD
Turning to B2, the “A570 nm/A630 nm” value is given as 1.0974 ± 0.0157 in series [1] (dose 1 μg/mL); 1.0013 ± 0.0781 in series [1] (dose 2 μg/mL); 0.8603 ± 0.0640 in series [1] (dose 4 μg/mL); 0.6959 ± 0.0419 in series [1] (dose 8 μg/mL); 0.5221 ± 0.0778 in series [1] (dose 16 μg/mL); 0.4330 ± 0.0579 in series [1] (dose 32 μg/mL). Also, the figures for the “A570 nm/A630 nm” value in series [1] (dose 64 μg/mL), in series [1] (dose 128 μg/mL) and in series [1] (dose 256 μg/mL) were 0.3029 ± 0.0286, 0.1942 ± 0.0450 and 0.0817 ± 0.0301, respectively. Also, the “PI (%)” value in series [1] (dose 1 μg/mL) is on record as 12.47%; in series [1] (dose 2 μg/mL), 20.13%; in series [1] (dose 4 μg/mL), 31.38%; in series [1] (dose 8 μg/mL), 44.49%; in series [1] (dose 16 μg/mL), 58.36%; in series [1] (dose 32 μg/mL), 65.46%. For the same molecule, the figures for the “PI (%)” value in series [1] (dose 64 μg/mL), in series [1] (dose 128 μg/mL) and in series [1] (dose 256 μg/mL) were 75.84%, 84.51% and 93.48%, respectively. Besides, the “number of CD31-positive new blood vessels” value in series [2] is “significantly reduced”. This molecule also registered an MVD in series [2] of 26.94 ± 5.91.
